From PubChem BioAssay (Tox21)
Where “and” joins values, the source holds several entries; their conditions need not be identical. Identical values can stand only once. This list was built around the results that the source calls inconclusive (neither active nor inactive); the mix of calls is not that of the screen. For some of these results: A potency beside an inconclusive call is a rough fit, not a confirmed value. Calls of active or inactive are those of the source. Unless noted, calls come from the whole dose curve; as a rule, active = well fitted curve in the direction sought with a large enough effect in the repeat runs; inconclusive = weak or mixed curves; inactive = no such curve, though single readings can be large; an effect the other way counts as inactive or inconclusive.

Columns and labels:
[1] = molecular target: Nuclear receptor subfamily 1 group I member 3 (Homo sapiens) (UniProt Q14994); assay: qHTS assay to identify small molecule agonists of the constitutive androstane receptor (CAR) signaling pathway (AID 1224839); note: nearly all actives have a fitted effect of over 15% in size; note: potency is the fitted concentration of half-maximal effect;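 for activation: HepG2 cells stably carrying human CAR and a CYP2B6 luciferase reporter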
Summary of the method: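 Stable hCAR/CYP2B6-2.2kb HepG2 line in DMEM with 10% FBS; compounds (15 concentrations) and 0.75 uM PK11195 final, 24 h at 37 C/5% CO2, then ONE-Glo luminescence after 30 min.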

[2] = qHTS assay to identify small molecule agonists of the hypoxia (HIF-1) signaling pathway (AID 1224846; active = well fitted activation curve with a large enough effect in the signal ratio in the repeat runs, not every such curve was filed as active; inconclusive = weak or mixed curves; the % refers to the signal ratio; note: potency is the fitted concentration of half-maximal effect); conditions: HRE-bla ME-180 cells, beta-lactamase ratio, 17 h; activation: at 76.8 µM (top of the series) unless noted
Summary of the method: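 ME-180 HRE-bla reporter cells; compounds in DMSO, 17 h at 37C; read-out beta-lactamase via CCF4-AM FRET.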

[3] = qHTS assay to identify small molecule agonists of the hypoxia (HIF-1) signaling pathway - cell viability counter screen (AID 1224844; calls by dose curve; note: nearly all actives have a fitted effect of over 50% in size; note: potency is the fitted concentration of half-maximal effect)
Summary of the method: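 In this counter screen, HRE-bla ME-180 cell viability after 17 hrs of compound exposure at 37C was read by CellTiter-Glo luminescence, multiplexed with the beta-lactamase reporter measurement.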

[4] = qHTS assay to identify small molecule antagonists of the estrogen related receptor (ERR) signaling pathway from Tox21 library (AID 1224848); note: nearly all actives have a fitted effect of over 50% in size; note: potency is the fitted concentration of half-maximal effect
Summary of the method: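 Tox21 10K compounds in DMSO tested for ERR pathway antagonism in NTP's ERR cell line; 18 h, 37 C exposure; ONE-Glo luminescence.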

[5] = qHTS RealTime-Glo MT Cell Viability Assay in HEK293 cells - 32 hour (AID 1224868); note: nearly all actives have a fitted effect of over 50% in size; note: potency is the fitted concentration of half-maximal effect
Summary of the method: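 HEK293 cells were seeded at 600 cells/well together with NanoLuc luciferase and cell-permeant prosubstrate, preincubated 5 h at 37 C/5% CO2, then given compound in DMSO by pintool. Luminescence from viable-cell prosubstrate reduction was read repeatedly over 40 h.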

[6] = qHTS assay to identify small molecule agonists of H2AX (AID 1224845; active = well fitted activation curve with a large enough effect in the signal ratio in the repeat runs, not every such curve was filed as active; inconclusive = weak or mixed curves; the % refers to the signal ratio; note: potency is the fitted concentration of half-maximal effect); conditions: CHO-K1 phospho-H2AX Ser139 HTRF, 3 h; activation (H2AX phosphorylation): at 154 µM (top of the series) unless noted
Summary of the method: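 Wild-type CHO-K1 cells plated overnight, then exposed 3 hr at 37C to compounds at 15 concentrations (0.76% DMSO). Lysed, then HTRF anti-pH2AX(S139)-cryptate/anti-H2AX-d2 detection after 24 hr at room temperature; emissions 665 and 620 nm.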

[7] = qHTS assay to identify small molecule agonists of H2AX - cell viability counter screen (AID 1224847; calls by dose curve; note: nearly all actives have a fitted effect of over 30% in size; note: potency is the fitted concentration of half-maximal effect)
Summary of the method: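 Viability of CHO-K1 (wild type) cells after 3 hr compound exposure was measured by CellTiter-Glo luminescence.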

[8] = qHTS RealTime-Glo MT Cell Viability Assay in HepG2 cells - 24 hour (AID 1224867); note: nearly all actives have a fitted effect of over 50% in size; note: potency is the fitted concentration of half-maximal effect
Summary of the method: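 HepG2 cells were seeded at 600 cells/well together with NanoLuc luciferase and a cell-permeant prosubstrate, preincubated 5 h at 37 C/5% CO2, then pin-dosed with compounds in DMSO. Nonlytic luminescence from viable cells was read at each time point.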

[9] = molecular target: Thyrotropin receptor (Homo sapiens) (UniProt P16473); assay: qHTS assay to identify small molecule agonists of the thyroid stimulating hormone receptor (TSHR) signaling pathway (AID 1224843; calls by dose curve; note: nearly all actives have a fitted effect of over 45% in size; note: potency is the fitted concentration of half-maximal effect); conditions: TSHR-HEK293 cells, cAMP HTRF, agonist mode, 30 min; activation: at 92.4 µM (top of the series) unless noted
Summary of the method: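 Using 15 concentrations per compound in triplicate, cAMP production was monitored in TSHR-HEK293 cells after 30 min compound incubation at RT; HTRF reagents followed, with fluorescence intensity recorded after 1 h.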

[10] = qHTS assay to identify small molecule agonists of the estrogen related receptor (ERR) signaling pathway from Tox21 library (AID 1224849; calls by dose curve; note: nearly all actives have a fitted effect of over 15% in size); conditions: ERR reporter cell line, ONE-Glo luciferase, 18 h; at 92.4 µM (top of the series)
Summary of the method: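 Luciferase activity in ERR pathway reporter cells served as the agonist readout; exposure lasted 18 h at 37 C, with ONE-Glo detection after 30 min at room temperature.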
% is set by controls: 0 for no effect and ±100 for the full control effect; tags give direction and shape of the fitted curve or compound fluorescence and quenching.

Chain of UniProt P16473 (P16473 whole entry, looked up): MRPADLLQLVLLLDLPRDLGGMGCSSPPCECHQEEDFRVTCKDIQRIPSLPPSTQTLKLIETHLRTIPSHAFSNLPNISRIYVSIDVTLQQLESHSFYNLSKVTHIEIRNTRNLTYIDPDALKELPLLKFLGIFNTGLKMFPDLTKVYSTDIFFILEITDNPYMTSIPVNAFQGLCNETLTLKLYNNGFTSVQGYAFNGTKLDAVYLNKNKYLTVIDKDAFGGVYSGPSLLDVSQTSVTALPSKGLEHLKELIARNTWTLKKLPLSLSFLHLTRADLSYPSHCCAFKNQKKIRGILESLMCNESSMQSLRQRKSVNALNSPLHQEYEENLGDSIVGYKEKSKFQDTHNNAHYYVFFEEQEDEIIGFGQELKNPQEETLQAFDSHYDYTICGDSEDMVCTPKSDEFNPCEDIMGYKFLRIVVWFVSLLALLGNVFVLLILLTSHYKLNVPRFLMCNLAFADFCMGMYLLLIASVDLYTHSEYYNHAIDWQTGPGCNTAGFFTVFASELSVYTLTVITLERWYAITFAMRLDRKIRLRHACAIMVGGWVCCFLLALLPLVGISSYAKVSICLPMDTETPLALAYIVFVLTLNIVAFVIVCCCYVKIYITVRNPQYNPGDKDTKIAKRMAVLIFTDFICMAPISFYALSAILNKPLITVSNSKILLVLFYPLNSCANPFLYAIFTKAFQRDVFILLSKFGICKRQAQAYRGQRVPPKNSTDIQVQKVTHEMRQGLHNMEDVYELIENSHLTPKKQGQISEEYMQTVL
Chain of UniProt Q14994 (Q14994 whole entry, looked up): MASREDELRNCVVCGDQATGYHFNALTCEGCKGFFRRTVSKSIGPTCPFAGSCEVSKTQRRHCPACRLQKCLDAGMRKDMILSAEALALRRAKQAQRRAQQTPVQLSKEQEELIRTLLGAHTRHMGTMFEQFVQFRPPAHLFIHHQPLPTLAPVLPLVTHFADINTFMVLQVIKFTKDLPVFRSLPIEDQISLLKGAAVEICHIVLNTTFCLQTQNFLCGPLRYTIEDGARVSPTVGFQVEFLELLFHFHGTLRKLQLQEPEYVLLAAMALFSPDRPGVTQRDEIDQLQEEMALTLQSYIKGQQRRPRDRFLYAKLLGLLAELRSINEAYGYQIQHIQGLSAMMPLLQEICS

N#Cc1ccccc1
Potency [1]: inactive | Potency [2]: inactive

CC1=C2[C@H](/C=C(\C)C(=O)O)CC[C@@H](C)[C@H]2CC1
Potency [1]: inconclusive: 63.4 µM [activator, single point] | Potency [3]: inconclusive: 50.8 µM [cytotoxic, single point] | Potency [4]: active: 56.5 µM | Potency [5]: inconclusive: 40.3 µM [cytotoxic, partial curve]

Nc1cccc(S(=O)(=O)O)c1
Potency [1]: inactive | Potency [3]: inconclusive: 43.8 µM [cytotoxic, partial curve, poor fit] | Potency [5]: inactive

O=C(O)Cc1c(Cl)ccc(Cl)c1Cl
Potency [1]: inactive | Potency [6]: inconclusive: 56.6 µM [rising, partial curve, poor fit]

CCCc1nn(C)c2c(=O)[nH]c(-c3cc(S(=O)(=O)N4CCN(C)CC4)ccc3OCC)nc12
Potency [1]: inactive | activation (H2AX phosphorylation) [6]: inconclusive: 10.8% [at 70.9 µM] | Potency [5]: inconclusive: 23.9 µM [cytotoxic, partial curve]

CCCCC(C=O)CC (stereo not given)
Potency [1]: inactive | Potency [6]: inactive

C#Cc1cccc(Nc2ncnc3cc(OCCOC)c(OCCOC)cc23)c1
Potency [1]: active: 7.5 µM | Potency [7]: inconclusive: 19.6 µM [rising, partial curve, poor fit] | Potency [8]: inactive

CC(C)COC(=O)/C=C/c1ccccc1
Potency [1]: inconclusive: 27.3 µM [activator, partial curve] | Potency [9]: inconclusive: 21.7 µM [inhibitor, full curve] | Potency [7]: inconclusive: 56.6 µM [cytotoxic, partial curve]

c1ccc(-c2ccccc2-c2ccccc2)cc1
Potency [1]: active: 27.3 µM | activation [9]: inconclusive: -17.9% | Potency [3]: inconclusive: 61.6 µM [cytotoxic, single point] | Potency [6]: inconclusive: 127 µM [activator, single point] | Potency [2]: inconclusive: 54.9 µM [single point] | Potency [7]: inconclusive: 127 µM [cytotoxic]

COc1cccc(OC)c1O
Potency [1]: inactive | Potency [6]: inactive

CCCCCOC(=O)CCC
Potency [1]: inactive | Potency [2]: inactive | Potency [4]: inactive

CC(C)(C)c1cc(CCC(=O)NN)cc(C(C)(C)C)c1O
Potency [1]: active: 30.6 µM | Potency [7]: inconclusive: 2.01 µM [cytotoxic, single point]

O=[N+]([O-])c1ccc(/C=N\O)o1
Potency [1]: inconclusive: 29.8 µM [activator, single point] | activation [9]: inconclusive: 25.7% [at 42.5 µM] | Potency [2]: inactive

c1ccc2c(c1)ccc1ccccc12
Potency [1]: inconclusive: 66.7 µM [activator, partial curve, poor fit] and inactive | Potency [9]: inconclusive: 29.8 µM [inhibitor] and inconclusive: 30.6 µM [inhibitor, partial curve, poor fit] | Potency [2]: inconclusive: 53.5 µM [rising, single point] | Potency [7]: inconclusive: 110 µM [cytotoxic, single point] and inactive

COc1ccc(C(=O)c2cccc(O)c2)c(OC)c1
Potency [1]: inactive | Potency [3]: inactive

CCOC(=O)Cn1c(=O)sc2cccc(Cl)c21
Potency [1]: active: 54.5 µM | activation [9]: inconclusive: -38.7% | Potency [8]: inconclusive: 24.5 µM [falling, partial curve]

CCN(CC)CCc1nc(-c2ccccc2)no1
Potency [1]: active: 9.44 µM | Potency [2]: inactive

O=P(c1ccccc1)(c1ccccc1)c1ccccc1
Potency [1]: inconclusive: 34.4 µM [activator, partial curve] | Potency [3]: inactive

O=C(O)c1nc(Cl)c(Cl)c(Cl)c1Cl
Potency [1]: active: 17.2 µM | activation [9]: inconclusive: -32.7% | Potency [3]: inactive | Potency [6]: inactive | activity change, positive = activation [10]: inactive: 0.56% | Potency [5]: inconclusive: 38.9 µM [rising, partial curve]

CN1C(C)(C)CC(O)CC1(C)C
Potency [1]: inactive | Potency [2]: inactive

CN(C)CCOC1=Cc2ccccc2Sc2ccc(Cl)cc21
Potency [1]: inactive | Potency [3]: inconclusive: 21.3 µM [cytotoxic, partial curve, poor fit] | Potency [7]: inactive | Potency [4]: inconclusive: 23.7 µM [inhibitor, partial curve, poor fit] | Potency [8]: inconclusive: 21.3 µM [falling, partial curve]

CCCCCCCCS(=O)(=O)O
Potency [1]: inactive | Potency [2]: inactive

Clc1cc(Cl)c2c(c1)N=C1CCCCCN1C2
Potency [1]: inconclusive: 21.1 µM [activator, partial curve] | Potency [9]: inconclusive: 9.44 µM [inhibitor, partial curve] | Potency [6]: inactive | Potency [7]: inconclusive: 31 µM [cytotoxic, partial curve]
